Experimental findings from PubChem BioAssay AID485344 (National Center for Advancing Translational Sciences (NCATS), 2010) are described below.

The campaign covered roughly 340,000 compounds. About 6,900 (2%) were called active. Rule as the data show it: active = inhibition above about 30%; inactive = below that, where a call was filed. This is a selection; strong and weak results do not stand in their true shares. Entries without a call were filed so in the source.

Chain of UniProt P14416 (P14416 whole entry, looked up): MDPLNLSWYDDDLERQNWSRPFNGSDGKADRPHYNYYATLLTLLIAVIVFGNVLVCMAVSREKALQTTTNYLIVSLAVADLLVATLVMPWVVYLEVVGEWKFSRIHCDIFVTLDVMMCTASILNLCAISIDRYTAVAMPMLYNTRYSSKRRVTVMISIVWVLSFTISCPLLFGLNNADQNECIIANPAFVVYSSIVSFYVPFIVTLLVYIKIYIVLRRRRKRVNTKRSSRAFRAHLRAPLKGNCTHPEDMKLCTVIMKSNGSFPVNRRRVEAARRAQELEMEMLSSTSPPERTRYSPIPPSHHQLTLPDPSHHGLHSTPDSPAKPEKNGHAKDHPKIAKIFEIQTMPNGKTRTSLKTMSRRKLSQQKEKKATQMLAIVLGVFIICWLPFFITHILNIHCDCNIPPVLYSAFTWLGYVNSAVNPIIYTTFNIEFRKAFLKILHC

The assay has as its target D(2) dopamine receptor (Homo sapiens) (UniProt P14416). Put plainly: HTS Assay for Allosteric Antagonists of the Human D2 Dopamine Receptor: Primary Screen for Antagonists. Also: 0% is about no effect. The conditions noted are these: HEK293 TREx D2 cells, calcium flux, dopamine EC80; at 10 µM; stronger effect = higher value. In short, it runs like this:
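Calcium mobilization kinetics were recorded at 1 s intervals in tetracycline-induced HEK293 T-REx D2 cells, first for 180 s after compound addition and then 180 s after EC80 dopamine.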
As to `COc1ccc(OCc2ccc(-c3nc(C#N)c(NCc4cccnc4)o3)o2)cc1`, the inhibition stood at 12.4%.
Turning to `CCOC(=O)c1cc(S(=O)(=O)NCc2ccc(OC)cc2)[nH]n1`, the inhibition is 0.239%.
Turning to `CCC(=O)N1CCCc2cc(S(=O)(=O)N3CCC(C(=O)Nc4ccc(C#N)cc4)CC3)ccc21`, the inhibition worked out at 28.1%.
In the case of `CC(=O)c1cccc(NC(=O)Cn2cc(C(=O)c3cccc(Cl)c3)c(=O)c3ccc(C)nc32)c1` it was -20.9%; in that of `Cc1ccc(C(=O)N2CCOCC2)cc1S(=O)(=O)Nc1cccc(C)c1C`, active: 41.6%; in that of `COc1ccc(NS(=O)(=O)c2ccc(C)c(NC(=O)NC3CCCCC3)c2)cc1`, active: 33.5%.
For the molecule `Cc1ccc2nc3c(cc(C(=O)NCc4ccco4)c(=N)n3C(C)C)c(=O)n2c1`, the inhibition came to 5.57%.
As to `CC(NC(=O)CSc1nc(-c2ccccc2F)nc2cc(=O)[nH]n12)c1nc2ccccc2n1C` (configuration not stated), the inhibition is -1.85%.
For the molecule `Cc1ccc(CNC(=O)Cn2ccn(-c3ccc(F)cc3)c(=O)c2=O)cc1`, the inhibition was -21.4%.
As for `O=C(Nc1ccc(N2CCOCC2)c(C(=O)O)c1)c1ccc(Br)cc1`, the inhibition was -8.42%.
For the molecule `Cc1cccc(CN2C(=O)c3ccccc3S(=O)(=O)c3ccc(C(=O)NC4CCCCC4)cc32)c1`, the inhibition worked out at 5.29%.
Regarding `COc1ccc(NC(=O)c2cc3c(=O)n(Cc4cccnc4)ccc3nc2C)c(OC)c1`, the inhibition was -4.6%.
`CCOC(=O)Cc1ccc2sc(-c3ccccc3)nc2c1`: the inhibition was active: 32.2%.
In the case of `COc1ccc(OCC(=O)NC(Cc2c[nH]c3ccccc23)C(=O)O)cc1` (configuration not stated), the inhibition is -9.8%.
On to `C/C=C(\C)CN1CCN(c2cccc(C)c2C)CC1`, for which the inhibition was active: 85%.
For the molecule `CCc1nnc(SC(CC)C(=O)Nc2cc(C)ccc2C)c2cc3occc3n12` (configuration not stated), the inhibition came out at 1.06%.
As for `CC1CCN(CCCNC(=O)CN2C(=O)CSc3ccc(S(=O)(=O)N4CCOCC4)cc32)CC1`, the inhibition came out at 22.4%.
As to `COc1cc(C2c3c(oc4ccccc4c3=O)C(=O)N2Cc2ccc(C)cc2)ccc1O` (configuration not stated), the inhibition came out at 17.2%.
For `Cc1ccc(C)c(NS(=O)(=O)c2ccc3oc(=O)c4ncn(C)c4c3c2)c1`, the inhibition was 3.65%.
Consider `CCn1c(=O)c2cc(C(=O)NCCc3ccc(Cl)cc3)sc2c2ccccc21`, for which the inhibition was determined as 7.04%.
Regarding `COc1cc(/C=N/N2C(=O)CSC2=S)cc(Br)c1O`, the inhibition was active: 43.6%.
Take `Cc1ccc(N(C)C(=O)C2CCN(S(=O)(=O)c3cn(C)cn3)CC2)cc1`: the inhibition turned out to be 0.181%.
`CCn1c(=O)c2sccc2n2c(CCC(=O)Nc3ccc(C(C)C)cc3)nnc12`: the inhibition came out at 1.2%.
For the molecule `COc1cccc(NC(=O)c2c(C(=O)Nc3ccccc3)sc3nc(C)cc(=O)n23)c1`, the inhibition was -28.6%.
On to `CCOc1ccc(/C=C/C(=O)Nc2sc3c(c2C(=O)OC)CCC3)cc1`, for which the inhibition is 11.7%.
`O=S(=O)(c1ccccc1)c1nc(-c2ccc(F)cc2)oc1N1CCCCCC1`: the inhibition is -10.3%.
Take `CCc1ccc(NC(=O)CSc2nc3ncccc3[nH]2)cc1`: the inhibition is -9.79%.
Regarding `Cc1ccc(C)c(CNC(=O)c2cnc3sc(N4CCCC4)nn3c2=O)c1`, the inhibition was -5.14%.
With `Cc1cc(C(=O)NC2CCN(Cc3ccccc3)CC2)n[nH]1`, the inhibition was active: 74.1%.
As for `CCOc1ccc(C(=O)c2cn(Cc3ccc(F)cc3)c3ccc(F)cc3c2=O)cc1`, the inhibition was -13.2%.
As for `Cc1ccc(CN(Cc2ccco2)C(=O)c2oc3ccc(C)cc3c2C)cc1`, the inhibition is 0.715%.
Turning to `Cc1cccc(-n2ncc3c(N4CCCCCC4)ncnc32)c1`, the inhibition amounted to 22.3%.
As to `CC(C)(C)C(=O)OC1=CN(Cc2ccccc2)S(=O)(=O)c2ccccc21`, the inhibition is -8.68%.
On to `CCOC(=O)c1ccc(-c2ccc(/C=C(\C#N)C(=O)Nc3ccc(C)cc3OC)o2)cc1`, for which the inhibition was -3.16%.
For `CCCNC(=O)CN1CCN(c2ncc(NC(=O)c3ccc(Cl)cc3)cc2C(=O)O)CC1`, the inhibition is -6.79%.
For `CCCCN1C(=O)C(O)(c2c(C)[nH]c3ccccc23)c2ccccc21` (configuration not stated), the inhibition was -12.1%.
For `CCCOc1ccccc1C1Oc2nc(SC)nnc2-c2ccccc2N1C(C)=O` (configuration not stated), the inhibition was 25%.
Turning to `COc1ccc(NC(=O)CCN2CCN(c3ccccc3F)CC2)c(OC)c1`, the inhibition is active: 85.7%.
Turning to `Cc1sc2ncnc(SCC(=O)NC3CCCC3)c2c1C`, the inhibition was active: 31.8%.
Regarding `CS(=O)(=O)N1CCc2cc(C(=O)Nc3cccc(F)c3)ccc21`, the inhibition was determined as 20.5%.
On to `Cc1ccc(C)c(Cn2c3ccccc3c3cnn(CC(=O)NC(C)c4ccccc4)c(=O)c32)c1` (configuration not stated), for which the inhibition amounted to 8.27%.
The result for `COc1ccccc1CC(=O)Nc1ccc2nc(N3CCC(C)CC3)cc(C)c2c1` reads -2.7%; that for `O=C(c1ccc(F)cc1)C1CCN(Cc2cn[nH]c2-c2ccc(F)cc2)CC1`, active: 93.9%; that for `COc1cccc2sc(N3CCN(C(=O)CCS(=O)(=O)c4ccc(F)cc4)CC3)nc12`, 2.61%.
The result for `Cc1ccc(CNC(=O)C(=O)NCC(c2cccnc2)N2CCN(c3ccccc3F)CC2)cc1` (configuration not stated) reads -1.28%.
The result for `Cc1ccsc1CN(C(=O)c1oc2ccccc2c1C)C1CCS(=O)(=O)C1` (configuration not stated) reads 1.68%; that for `CCCS(=O)(=O)N1CCC(n2c(C(F)(F)F)nc3cccnc32)CC1`, -1.21%.
With `Cc1ccc(NC(=O)Cn2nnc(C(=O)NCCc3ccccc3)c2N)cc1C`, the inhibition is -6.47%.
On to `Cc1oc2ncn(C)c(=O)c2c1C(=O)NCCCN(Cc1ccccc1)C(C)C`, for which the inhibition is -8.6%.
For `Cc1ccc(C(=O)Nc2nc(-c3ccccc3)ns2)cc1`, the inhibition was found to be 19.5%.
For the molecule `CCn1c(=O)c2sccc2n2c(CCC(=O)Nc3ccc(OC)c(Cl)c3)nnc12`, the inhibition was 15.1%.
As to `CCc1ccc(C2NC(=O)c3[nH]nc(-c4cccc(OC)c4)c32)cc1` (configuration not stated), the inhibition turned out to be 8.9%.
The result for `CC(C)Oc1ccc(CNC(=O)C2CCN(c3nc4ccccc4n(C)c3=O)CC2)cc1` reads -19.4%.
Consider `CCc1ccc(CNC(=O)CCn2c(=O)c3cccn3c3ccc(F)cc32)cc1`, for which the inhibition amounted to 14.9%.
For `CCOc1ccccc1CNC(=O)c1cc(-c2ccc(C)c(C)c2)nc2ccccc12`, the inhibition stood at 18.3%.
As for `CCOc1ccccc1NC(=O)COc1ccc(S(=O)(=O)NC2CCCCC2)cc1`, the inhibition is 7.93%.
In the case of `O=C(Nc1ccc(F)c(F)c1)C1CCCN1S(=O)(=O)c1cccc2nsnc12` (configuration not stated) it was -17.3%; in that of `COc1ccc(S(=O)(=O)N(CC(=O)Nc2cccnc2)c2ccc(C)cc2)cc1OC`, 5.76%.
The result for `CCc1ccc(-n2c(CCC(=O)O)ccc2-c2ccc(F)cc2)cc1` reads 8.6%.
In the case of `COc1cc2c(=O)n(CCC(=O)NCC3CCCO3)c(=O)n(CC(=O)Nc3ccc(F)cc3)c2cc1OC` (configuration not stated) it was 7.25%.
Consider `Cc1ccc(O)c(NC(=O)CCS(=O)(=O)c2nc(-c3ccc4c(c3)OCO4)cc(C(F)(F)F)n2)c1`, for which the inhibition was found to be 3.9%.
For `Cc1ccc(C)c(NC(=O)CCCN2C(=O)C(c3ccccc3)Oc3cccnc32)c1` (configuration not stated), the inhibition was 6.54%.
As to `Nc1c(C(=O)Nc2ccc(Br)cc2)sc2nc(-c3ccncc3)ccc12`, the inhibition worked out at 14.8%.
In the case of `COc1cccc(NC(=O)c2ccc(-c3nc(COc4ccc(C)cc4)c(C)o3)cc2)c1`, the inhibition is -4.71%.
On to `Cc1ccc2c(c1)c1c(c(=O)n(-c3ccccc3C)c(=O)n1CC(=O)NCC1CCCO1)n2C` (configuration not stated), for which the inhibition was -2.4%.
As to `CC(=O)Nc1ccc(C(=O)CSc2nnc3ccc4ccccc4n23)cc1`, the inhibition was -4.25%.
For `CCOC(=O)c1cc2c(=O)n3ccccc3nc2n(C)c1=NC(=O)c1cc2ccccc2o1`, the inhibition was -7.06%.
As for `CCOc1ccc(NC(=O)NCCN2CCN(c3ccccc3F)CC2)cc1`, the inhibition is active: 78.8%.
Take `O=S(=O)(NCc1ccc(Cl)cc1)c1ccc(N2CCCCS2(=O)=O)cc1`: the inhibition was -28%.
The result for `CCOC(=O)c1cccc(NC(=O)c2cc3cc4ccc(C)cc4nc3s2)c1` reads 1.21%; that for `CSc1ccc(CCNC(=O)c2cc3c(-c4ccccc4F)nn(C)c3s2)cc1`, 7.92%; that for `Cc1cccc(NC(=O)Cn2c(=O)n(CCC(=O)N3CCc4ccccc4C3)c(=O)c3ccccc32)c1`, -8.05%.
On to `Nc1c(C(=O)NCc2ccccc2)nnn1Cc1cccc(Br)c1`, for which the inhibition came out at 8.5%.
As to `CCOC(=O)c1cc(-c2ccc(F)cc2)n(CCC(=O)NC2CCCCC2)c1C`, the inhibition turned out to be 1.2%.
Turning to `Cc1cc(C)cc(Nc2nc3c(S(=O)(=O)c4cccc(Cl)c4)nnn3c3ccsc23)c1`, the inhibition was determined as 8.55%.
As to `Cc1cc(C)cc(Nc2cc(C(=O)NCc3ccccc3)c3ccccc3n2)c1`, the inhibition is -3.99%.
For `CCn1c(CN2CCCCC2)nc2cc(S(=O)(=O)N3CCCCC3)ccc21`, the inhibition is active: 54.7%.
For the molecule `O=C(Nc1ccccc1C(F)(F)F)c1cc2ccccn2n1`, the inhibition was -2.3%.
Consider `CCOc1cc(CNCCSc2nnnn2-c2ccccc2)ccc1OC`, for which the inhibition was -26.6%.
The result for `CCOC(=O)C1CCN(C(c2ccc(F)cc2)c2sc3nc(-c4ccco4)nn3c2O)CC1` (configuration not stated) reads -16.6%; that for `Cc1cc(C)c(NC(=O)C(C)n2nnc3sc(-c4ccccc4)cc3c2=O)c(C)c1` (configuration not stated), 18.1%.
As to `CN(C)C(=O)c1c(NC(=O)c2ccco2)sc2c1CCCCC2`, the inhibition was active: 34.9%.
For `CCOc1ccc(C(=O)c2cn(CC(=O)Nc3cc(OC)ccc3OC)c3cc(OC)c(OC)cc3c2=O)cc1`, the inhibition was -12%.
The result for `COc1ccc(NC(=O)CCSc2nc(-c3ccco3)cc(C(F)(F)F)n2)cc1OC` reads -1.84%.
In the case of `CCc1ccc(OCCSc2nc(-c3cccc(C)c3)nc3cc(=O)[nH]n23)cc1`, the inhibition was -5.04%.
With `O=C(CN1C(=O)C2(SCC(=O)N2c2ccc(F)cc2)c2ccccc21)NCCc1ccccc1` (configuration not stated), the inhibition came out at 1.08%.
For the molecule `COc1ccc(NCc2nnc3n2CCCCC3)c(OC)c1`, the inhibition stood at 2.55%.
Take `COc1cccc(CN2CCN(c3ncccn3)CC2)c1OC`: the inhibition was active: 60.3%.
Take `COc1ccc(C)cc1NC(=O)NCc1ccc(F)cc1`: the inhibition was active: 52.8%.
Turning to `CC(=O)c1c(C)oc2ccc(N(C(=O)c3ccncc3)S(=O)(=O)c3ccc(C)cc3C)cc12`, the inhibition is -2.72%.
In the case of `COc1ccccc1NC(=O)C1=C(C)Nc2nc(SCc3ccccc3Cl)nn2C1c1ccncc1` (configuration not stated), the inhibition amounted to 2.43%.
In the case of `CCN(CC)S(=O)(=O)c1ccc(C(=O)NCCSc2c(-c3ccc(OC)cc3)[nH]c3ccccc23)cc1`, the inhibition worked out at 3.02%.
As to `CNC(=O)C1CCC(Cn2c(=O)c3sccc3n(CC(=O)Nc3cc(F)ccc3F)c2=O)CC1` (configuration not stated), the inhibition is 11.1%.
In the case of `CC(=O)Nc1cccc(NC(=O)CSc2cn(CC(=O)N3CCCCCC3)c3ccccc23)c1` it was -13.5%.
As to `O=C(Nc1ccc2oc(-c3cccc(Cl)c3Cl)nc2c1)c1cccc(Br)c1`, the inhibition is 7.28%.
`COc1cn(CC(=O)Nc2cc(C)ccc2C)c(CN2CCCCC2)cc1=O`: the inhibition amounted to 4.51%.
The result for `O=[N+]([O-])c1cc(-c2nc(-c3ccncc3)no2)ccc1NCc1ccccc1` reads -14%.
